Where a name gives a salt, the structure may show the parent alone. This is one part of the list. Repeats are few or missing, and single values can be far off.
Legend:
[1] = test system: H9 teratoma-derived LAM model cells, TSC2-/-; assay: percent SyTOX+ dead cells; higher = more cytotoxic; settings: 5 µM, treatment time 72 h, culture: 3D hyaluronic acid hydrogel
[2] = test system: H9 teratoma-derived LAM model cells, WT; assay: percent SyTOX+ dead cells; higher = more cytotoxic; settings: 5 µM, treatment time 72 h, culture: 3D hyaluronic acid hydrogel, genotype: WT
[3] = test system: H9 teratoma-derived LAM model cells, TSC2-/-; assay: percent of cells invaded past median invasion distance of vehicle control; LAM is lymphangioleiomyomatosis; the cells come from teratomas of the human stem cell line H9; higher = more invasion; extreme values may be limits of the assay; settings: 5 µM, treatment time 72 h, culture: 3D hyaluronic acid hydrogel
[4] = test system: H9 teratoma-derived LAM model cells, WT; assay: as above; settings: 5 µM, treatment time 72 h, culture: 3D hyaluronic acid hydrogel, genotype: WT
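Throughout, for percent SyTOX+ dead cells: cells seeded atop a hyaluronic acid gel crosslinked via MMP-cleavable peptides, containing vitronectin peptides and methylcellulose, imaged live by high-content microscopy with automated analysis, one technical replicate per compound.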
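Throughout, for percent of cells invaded past median invasion distance of vehicle control: live cells imaged by high content microscopy and scored with in-house automated image analysis, one technical replicate per compound in each genotype and rapamycin condition.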

Row | Structure (SMILES) | percent SyTOX+ dead cells ([1]; rapamycin 0 nM) | percent SyTOX+ dead cells ([1]; rapamycin 20 nM) | percent SyTOX+ dead cells ([2]; rapamycin 0 nM) | percent SyTOX+ dead cells ([2]; rapamycin 20 nM) | percent ([3]; rapamycin 0 nM) | percent ([3]; rapamycin 20 nM) | percent ([4]; rapamycin 0 nM) | percent ([4]; rapamycin 20 nM)
1 | Cc1ccc([N+](=O)[O-])cc1S(=O)(=O)N(C)/N=C/c1cnc2ccc(Br)cn12 [PIK-75 hydrochloride] | 31.2% | 34% | 20.6% | 28.9% | 0% | 0% | 0% | 0%
2 | Cc1cc(Nc2cc(N3CCN(C)CC3)nc(/C=C/c3ccccc3)n2)n[nH]1 | 19.4% | 20.3% | 50.3% | 48.9% | 29.9% | 78.4% | 4.81% | 18.3%
3 | COc1cc2ncc(-c3ccccc3)nc2cc1OC [Tyrphostin AG-1296] | 7.49% | 6.91% | 14.1% | 5.56% | 27.3% | 19.1% | 21.6% | 23%
4 | CCN1CCN(Cc2ccc(Nc3ncc(F)c(-c4cc(F)c5nc(C)n(C(C)C)c5c4)n3)nc2)CC1 | 5.14% | 3.45% | 11.9% | 10.9% | 76.7% | 77.8% | 58.8% | 30.4%
5 | CN(c1ccccc1CNc1nc(Nc2ccc3c(c2)CC(=O)N3)ncc1C(F)(F)F)S(C)(=O)=O | 34.1% | 22.4% | 37% | 38.1% | 31.7% | 98.8% | 24% | 47%
6 | Fc1cc(-c2cccc3ncc(-c4cnn(C5CCNCC5)c4)nc23)cc(F)c1CN1CCOCC1 | 12.9% | 4.3% | 17% | 12.4% | 79.5% | 69.3% | 64.5% | 47.2%
7 | C=C(C)[C@@H](CC=C(C)C)C[C@@]12C[C@@H](CC=C(C)C)C(C)(C)[C@@](CC=C(C)C)(C(=O)C(C(=O)c3ccc(O)c(O)c3)=C1O)C2=O [Garcinol (BML-GR343)] | 17.4% | 16% | 14.3% | 4.9% | 76.7% | 20.7% | 49.1% | 26.6%
8 | COc1ccccc1S(=O)(=O)Nc1ccc2c(c1)CN(C)C(=O)N2 | 7.18% | 8.86% | 10.3% | 13.3% | 72.2% | 69.9% | 59% | 54.3%
9 | Cc1ccc(-c2ccc3c(ccc4sc5c(c43)NC[C@@H](C)NC5=O)n2)cn1 | 13.2% | 15.6% | 36.8% | 27.7% | 58.7% | 24.9% | 20.9% | 5.12%
10 | CCN(CCO)CCCOc1ccc2c(Nc3cc(CC(=O)Nc4cccc(F)c4)[nH]n3)ncnc2c1 [AZD-1152-HQPA, Barasertib] | 19.9% | 11.3% | 21.2% | 14.7% | 64% | 27.8% | 41.5% | 27.2%
11 | CC(=O)c1ccc(N2CCOCC2)cc1O | 9.7% | 6.52% | 7.62% | 10.4% | 56.7% | 99.5% | 59.1% | 92.2%
12 | CC(C)(F)C[C@H](N[C@@H](c1ccc(-c2ccc(S(C)(=O)=O)cc2)cc1)C(F)(F)F)C(=O)NC1(C#N)CC1 [Odanacatib, MK-0822] | 12.3% | 12.8% | 5.79% | 9.88% | 55.6% | 34.3% | 72.3% | 63%
13 | CN(c1ncccc1CNc1nc(Nc2ccc3c(c2)CC(=O)N3)ncc1C(F)(F)F)S(C)(=O)=O | 35.2% | 33.2% | 34.9% | 35% | 43.4% | 48.2% | 24% | 33.1%
14 | Cc1cncc2cccc(S(=O)(=O)N3CCCN(C(=O)CN)C[C@@H]3C)c12 [H 1152, Glycyl dihydrochloride] | 28.7% | 38.9% | 53.6% | 43.4% | 0% | 0% | 1.12% | 0.53%
15 | COc1cc2c(NC3CCN(C)CC3)nc(N3CCCN(C)CC3)nc2cc1OCCOCCN(C)C | 7.36% | 11.5% | 12% | 12.1% | 53.5% | 37.8% | 55.9% | 33.5%
